# Over roughly 81,000 sequences, “one-hybrid fitness for binding parS DNA” has its median near -0.17; the highest 2% begin near 0.51. The list shows a part of the results.
# B1: Caulobacter ParB omega fusion; a variant is named by its letters at X, in order, B8GW30 (parent)
# chain: MESVVVGEPGMSEGRRGLGRGLSALLGEVDAAPAQAPGEQLGGSREAPIEILQRNPDQPRRTFREEDLEDLSNSIREKGVLQPILVRPSPDTAGEYQIVAGERAWRAAQRAGLKTVPIMVRELDDLAVLEIGIIENVQRADLNVLEEALSYKVLMEKFERTQENIAQTIGKSXSHVANXMRLLXLPDEVQSYLVSGELTAXHARAIAAAADPVALAKQIIEGGLSVRETEALARKAPNLSAGKSKGGRPPRVKDTDTQALESDLSSVLGLDVSIDHRGSTGTLTITYATLEQLDDLCNRLTRGI
# Variants of: B1
# Test: one-hybrid fitness for binding parS DNA (scaled: cognate 1, non-cognate 0); higher = stronger binding
# Conditions: with parS DNA site
# Outline: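 Fitness here means the log change in variant-to-wild-type read ratio between plasmids sequenced before and after selection. That scale was set so cognate equals 1 and non-cognate equals 0. The selection was a bacterial one-hybrid screen of Caulobacter ParB libraries, four specificity codons randomised, in E. coli USO carrying a HIS3 reporter with the site 19 bp from the promoter, grown 48 hours at 37°C on M9-minus-histidine with 0.1 mM IPTG and 5 mM 3-AT.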
row,Variant,one-hybrid fitness for binding parS DNA
1,GSTP,≤ 0.2
2,SQLC,≤ 0.2
3,DWPS,≤ 0.2
4,SDTP,≤ 0.2
5,CKMS,≤ 0.2
6,RCCK,≤ 0.2
7,VVSW,≤ 0.2
8,RVAG,0.999
9,CDLR,≤ 0.2
10,NEGG,≤ 0.2
11,IARH,≤ 0.2
12,CGER,≤ 0.2
13,RNNG,0.948
14,AFAN,≤ 0.2
15,PSNC,≤ 0.2
16,KSEY,≤ 0.2
17,CAVM,≤ 0.2
18,KAAK,≤ 0.2
19,RRMD,≤ 0.2
20,QFPC,≤ 0.2
21,LMNH,≤ 0.2
22,GVVC,≤ 0.2
23,RFNH,≤ 0.2
24,DTDT,≤ 0.2
25,VPNR,≤ 0.2

row,Variant,one-hybrid fitness for binding parS DNA
1,TSPI,≤ 0.2
2,QLHC,≤ 0.2
3,PLVC,≤ 0.2
4,HVRR,≤ 0.2
5,IRGA,≤ 0.2
6,LLAM,≤ 0.2
7,HPVS,≤ 0.2
8,ETNY,≤ 0.2
9,SWSG,≤ 0.2
10,EGGG,0.251
11,KRPY,≤ 0.2
12,RPMR,≤ 0.2
13,YISA,≤ 0.2
14,INHL,≤ 0.2
15,AWCS,≤ 0.2
16,RHGL,≤ 0.2
17,FNTY,≤ 0.2
18,TFRR,≤ 0.2
19,YSDT,≤ 0.2
20,CPSM,≤ 0.2
21,RNHW,≤ 0.2
22,PCVY,≤ 0.2
23,LDDK,≤ 0.2
24,PPLA,≤ 0.2
25,ETIT,≤ 0.2

row,Variant,one-hybrid fitness for binding parS DNA
1,PSPP,≤ 0.2
2,LQWD,≤ 0.2
3,CQTG,≤ 0.2
4,THYR,≤ 0.2
5,QSYD,≤ 0.2
6,SGDT,≤ 0.2
7,AYIC,≤ 0.2
8,ELAN,≤ 0.2
9,SLQQ,≤ 0.2
10,RCFV,≤ 0.2
11,VSRV,≤ 0.2
12,MWEG,≤ 0.2
13,WGFS,≤ 0.2
14,NGNP,≤ 0.2
15,QGHA,≤ 0.2
16,YSIS,≤ 0.2
17,TYWF,≤ 0.2
18,LDGC,≤ 0.2
19,TRTA,≤ 0.2
20,AKNL,≤ 0.2
21,MMNL,≤ 0.2
22,HAVE,≤ 0.2
23,GQRR,≤ 0.2
24,SISK,≤ 0.2
25,IHFT,≤ 0.2

row,Variant,one-hybrid fitness for binding parS DNA
1,SQRL,≤ 0.2
2,HVAM,≤ 0.2
3,QYET,≤ 0.2
4,RFEW,≤ 0.2
5,LGEF,≤ 0.2
6,VDGV,≤ 0.2
7,KQSS,≤ 0.2
8,LGNG,≤ 0.2
9,KLMR,≤ 0.2
10,RRTS,0.651
11,FFPG,≤ 0.2
12,PYFY,≤ 0.2
13,RWGM,≤ 0.2
14,HHMR,≤ 0.2
15,QVFI,≤ 0.2
16,NPRS,≤ 0.2
17,RQML,≤ 0.2
18,TKTP,≤ 0.2
19,QNEM,≤ 0.2
20,QYLA,≤ 0.2
21,CRVE,≤ 0.2
22,SRSK,≤ 0.2

# From a collection of fitness landscapes (doi:10.1016/j.celrep.2020.107928)
